In publication PMC4336329 (PLoS ONE, 2015):
The whole screen tested about 310,000 compounds, of which about 2,200 (0.71%) showed an effect of 50% or more. Effects have a minus sign here. This is one part of the list.

Target: human ether-à-go-go-related gene (hERG) potassium channel (human, UniProt Q12809)
Experiment: primary screen, population patch clamp on CHO cells stably expressing hERG

Chain of human ether-à-go-go-related gene (hERG) potassium channel (Q12809 whole entry, looked up): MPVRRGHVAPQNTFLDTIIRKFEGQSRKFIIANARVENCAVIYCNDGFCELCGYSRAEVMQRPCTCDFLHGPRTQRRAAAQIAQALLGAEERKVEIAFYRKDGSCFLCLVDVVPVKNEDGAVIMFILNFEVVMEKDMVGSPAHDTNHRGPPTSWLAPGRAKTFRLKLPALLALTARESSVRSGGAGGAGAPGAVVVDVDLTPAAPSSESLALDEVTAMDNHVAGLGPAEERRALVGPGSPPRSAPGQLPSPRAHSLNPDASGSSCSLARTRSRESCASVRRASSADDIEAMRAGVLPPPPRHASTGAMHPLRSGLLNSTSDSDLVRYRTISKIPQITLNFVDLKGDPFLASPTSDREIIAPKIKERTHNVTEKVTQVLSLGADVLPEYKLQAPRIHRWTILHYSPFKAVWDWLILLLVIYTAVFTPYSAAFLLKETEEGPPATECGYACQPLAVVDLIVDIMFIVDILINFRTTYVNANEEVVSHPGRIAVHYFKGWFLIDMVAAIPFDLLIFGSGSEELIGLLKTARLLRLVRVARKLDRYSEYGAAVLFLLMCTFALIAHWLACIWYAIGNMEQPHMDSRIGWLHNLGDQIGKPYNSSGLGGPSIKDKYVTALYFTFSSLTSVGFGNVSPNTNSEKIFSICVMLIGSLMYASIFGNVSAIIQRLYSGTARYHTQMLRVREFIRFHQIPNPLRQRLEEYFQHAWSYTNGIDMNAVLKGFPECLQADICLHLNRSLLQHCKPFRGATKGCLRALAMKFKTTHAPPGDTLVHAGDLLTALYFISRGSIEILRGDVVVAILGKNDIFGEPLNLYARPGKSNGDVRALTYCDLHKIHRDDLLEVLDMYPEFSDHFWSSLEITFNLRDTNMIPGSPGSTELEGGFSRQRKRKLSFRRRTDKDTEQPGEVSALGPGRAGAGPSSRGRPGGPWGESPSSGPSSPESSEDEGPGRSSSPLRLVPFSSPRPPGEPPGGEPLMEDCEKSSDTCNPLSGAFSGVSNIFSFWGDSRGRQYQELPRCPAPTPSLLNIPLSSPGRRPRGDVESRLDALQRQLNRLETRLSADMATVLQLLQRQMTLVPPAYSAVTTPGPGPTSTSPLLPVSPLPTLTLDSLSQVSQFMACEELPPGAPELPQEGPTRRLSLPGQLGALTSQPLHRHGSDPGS

| SMILES | hERG current change (%, negative = inhibition) at 1uM [%] |
| --- | --- |
| COCCn1c(SCC(=O)N2CCOCC2)nnc1-c1ccncc1 | 7.79 |
| COc1ccc(C(=O)NC2CC2)cc1OC1CCN(C/C=C/c2ccccc2)CC1 | -84.3 |
| CCOC(=O)C(C)CC(C)C(=O)N1CCOCCOCCN(C(=O)C(C)CC(C)C(=O)OCC)CCOCC1 (centres unmarked) | 5.45 |
| COc1cc2c(cc1OC)C(=S)NC(C)(C)C2 | 14.8 |
| CNc1nnc(-c2cc3cc(Cl)ccc3oc2=O)s1 | 7.33 |
| Cc1ccc(S(=O)(=O)N2CCN(C(=O)CCn3cncn3)CC2)cc1 | 3.76 |
| O=C(Cn1cnc([N+](=O)[O-])n1)NC1CC1 | 10.4 |
| C/C(=C\C(=O)C(F)(F)F)Nc1ccc(C)cc1 | 9.13 |
| COc1ccccc1NC(=O)CSc1nnc(-c2ccncc2)n1CC1CCCO1 (centres unmarked) | 4.17 |
| c1ccc(-c2cn3c(n2)CCc2ccc4cccnc4c2-3)cc1 | 1.62 |
| O=C(CSc1nnc(-c2c[nH]c3ccccc23)o1)NCC1CCCO1 (centres unmarked) | 14.4 |
| COC(=O)c1c(NC(=O)c2ccco2)sc2c1CCC2 | 18.8 |
| CCCNC(=O)CSc1nc(Cc2ccccc2)nc2ccccc12 | 5.1 |
| CN(C)CCN(C(=O)c1cccc(Cl)c1)c1nc2c(Cl)cccc2s1.Cl | -0.637 |
| COC(=O)c1cc(NC(=O)c2c(F)c(F)c(F)c(F)c2F)cc(C(=O)OC)c1 | 13.5 |
| CCOc1ccc(N(CC(=O)NCCSc2ccccn2)S(=O)(=O)c2ccc(Cl)cc2)cc1 | 9.55 |
| CO/N=C/CC(=O)c1cnc(-c2ccc(Cl)cc2)s1 | 7.46 |
| COc1cc(-c2nnc(SCC(=O)N(C)C3CCS(=O)(=O)C3)o2)cc(OC)c1OC (centres unmarked) | 10.6 |
| O=C(CCS(=O)(=O)c1ccccc1)Nc1ccccc1-c1nc2ccccc2s1 | 17.2 |
| O=C(O)C1=C[C@@H](c2ccc(C(F)(F)F)cc2)C[C@@H](OCc2ccc(CO)cc2)O1 | 16.6 |
| COc1ccccc1C(C(=O)NC1CCCC1)N(C(=O)c1csnn1)C1CC1 (centres unmarked) | 12.1 |
| Cn1cccc1C(=O)NC1CCCCC1 | 5.24 |

| SMILES | hERG current change (%, negative = inhibition) at 1uM [%] |
| --- | --- |
| Nc1ncnc(NC2CCS(=O)(=O)C2)c1[N+](=O)[O-] (centres unmarked) | -2.55 |
| Cc1coc2c(C)c3oc(=O)c4c(c3cc12)CCCC4 | 12.3 |
| CN1CCCN(Cc2ccc(Cl)cc2Cl)CC1 | -13.8 |
| CC(C)(C)CC(C)(C)NC(=S)Nc1ccc2nc(-c3ccccn3)c(-c3ccccn3)nc2c1 | 2.06 |
| Cc1cc(C(=O)Nc2ccc(C)c(C)c2)n(-c2ccccc2)n1 | 10.5 |
| COCCn1c(=S)[nH]c2cc(C(=O)N3CCC(C(N)=O)(N4CCCCC4)CC3)ccc2c1=O | 4.92 |
| COc1ccc(-c2cnc3nc(/N=C/N(C)C)nn3c2/N=C/N(C)C)cc1 | 6.59 |
| COC(=O)c1ccc(Sc2ccccc2NS(=O)(=O)c2ccc(OC)cc2)nc1 | 11 |
| Cc1ccccc1NC(=O)NNC(=O)c1ccc2ccccc2c1 | 15.8 |
| COc1ccc2nc(COC(=O)c3cccs3)c(C(C)=O)[n+]([O-])c2c1 | 9.07 |
| COc1cccc(S(=O)(=O)NCc2ccc(C(=O)Nc3ccc(Cl)cc3)cc2)c1 | 5.08 |
| Cc1c(OCC(=O)NCc2cccnc2)ccc2c3c(c(=O)oc12)CCCC3 | 11 |
| O=C(O)c1ccc(N2C(=O)CC(SC(=NCc3ccc4c(c3)OCO4)Nc3ccc(F)cc3)C2=O)cc1 (centres unmarked) | 21.9 |
| Nc1nc(NCCO)nc(NCC2CCCO2)c1[N+](=O)[O-] (centres unmarked) | 11.1 |
| CCc1nnc(NC(=O)CN2CCN(Cc3cccc(OC)c3)CC2)s1 | 4.66 |
| O=C(COC(=O)CCc1nc2ccccc2n1-c1ccccc1)Nc1ccc(N2CCCCC2)cc1 | 10.6 |
| COC(=O)c1ccc(CNC(=O)COC(=O)C23CC4CC(CC(C4)C2)C3)cc1 | 10.3 |
| Cc1ccc(OCC(=O)Nc2ccc(C(=O)O)cc2NC(=O)COc2ccc(C)c(C)c2)cc1C | 14.1 |
| Cc1ccc(NC(=O)CN(C)C(=O)C(Sc2ccccc2)c2ccccc2)cc1 (centres unmarked) | 9.16 |
| CC(=O)c1ccc(N2CCN(CC(O)c3ccccc3)CC2)cc1 (centres unmarked) | 0.0358 |
| CCN(CC)c1ccc(C(=O)OCC(=O)Nc2cc3oc4ccccc4c3cc2OC)cc1 | 10.7 |
| O=C(COC(=O)CCc1ccc(S(=O)(=O)N2CCOCC2)cc1)NC1CCCCCC1 | -2.65 |

| SMILES | hERG current change (%, negative = inhibition) at 1uM [%] |
| --- | --- |
| CC#CC(=O)N1CCCC(Cc2cccc(OC)c2)(C(=O)OCC)C1 (centres unmarked) | 21.4 |
| O=C(NC(=S)Nc1ccc(C(=O)N2CCOCC2)cc1)c1ccc([N+](=O)[O-])cc1 | 18.3 |
| Cc1csc(NC(=O)c2ccc(Cn3nc(C)c(Br)c3C)o2)n1 | 7.27 |
| COc1cccc(C2c3c(oc4ccc(Cl)cc4c3=O)C(=O)N2c2cc(C)on2)c1OC (centres unmarked) | 8.41 |
| CCC(C)NC(=O)Cn1cccc1C(=O)c1ccccc1 (centres unmarked) | -0.844 |
| CN1CCN(CCCC(=O)c2ccc(F)cc2)CC1.Cl | -1.2 |
| CN(C)CCn1c(=O)n(-c2ccc(F)cc2)c(=O)c2c3c(sc21)CCCCC3 | 7.59 |
| CCn1c(NCc2ccccn2)nc2ccccc21 | 9.53 |
| Cc1cccc(Nc2nc(N3CCCC3)nc(N3CCCC3)n2)c1 | 1.05 |
| COc1ccc(NC(=O)Cn2c(CCC(=O)O)ccc2-c2ccc(C)cc2)cc1 | 4.96 |
| COc1cccc(CNC(=O)CCn2ccc3cc(S(=O)(=O)N4CCC(C)CC4)ccc32)c1 | 11.4 |
| CCc1ccc(-c2nc(C(N)=O)c3[nH]c(=O)n(-c4ccccc4OC)c3n2)cc1 | 10.2 |
| COC(=O)C1=C(C)NC(=O)NC1c1cccc(OC)c1OCc1ccccc1 (centres unmarked) | -3.16 |
| Cc1cccc(-c2oc3ccccc3c2C#CCCO)c1 | 10.3 |
| COC(=O)c1c(NC(=O)c2ccco2)sc2c1CCN(C(C)=O)C2 | 5.74 |
| CSc1ccc(CN(C)C(=O)c2cccc(S(=O)(=O)N3CCN(Cc4ccccc4)CC3)c2)cc1 | 11.2 |
| CCOc1ccc(OCC)c(NC(=O)C2CCCN(c3ncccn3)C2)c1 (centres unmarked) | -1.69 |
| Cc1n[nH]c(C)c1S(=O)(=O)N(CC(=O)N1CCc2ccccc21)c1ccc(C(C)C)cc1 | 10.9 |
| O=C(NCCc1ccccc1)C1CCC(CNS(=O)(=O)c2cccc3cccnc23)CC1 (centres unmarked) | -5.64 |
| COc1cc(C(=O)NCc2nnc(SCC(=O)Nc3cccc(C(F)(F)F)c3)o2)cc(OC)c1OC | 7.07 |
| O=C(CNC(=O)c1ccccc1)Oc1cccc(Cl)c1 | 14.9 |
| CCN1CCN(C(=O)c2ccc3c(=O)n(Cc4ccccc4OC)c(=S)[nH]c3c2)CC1 | 10.9 |

| SMILES | hERG current change (%, negative = inhibition) at 1uM [%] |
| --- | --- |
| COc1ccc(C(=O)Nc2cccc3c2CCCC3)c(OC)c1 | 2.57 |
| COCCn1c(=N)c(S(=O)(=O)c2ccc(F)cc2)cc2c(=O)n3ccccc3nc21 | 11.2 |
| COc1ccc(CN(C)C(=O)C2CCN(C(=O)Nc3ccccc3)CC2)cc1OC | 10.9 |
| Cc1cc(-c2ccc3c(c2)COc2c4ccccc4nn2-3)on1 | 15.2 |
| Cc1nc(N2CCC(C)CC2)c2c(C)c(C(=O)O)sc2n1 | 11 |
| Cc1ccc(CN2CCCC(C(=O)c3cccc(C(F)(F)F)c3)C2)o1 (centres unmarked) | 11.3 |
| CC(=O)Nc1ccc(NC(=O)c2nc(S(=O)(=O)Cc3cccc(C)c3)ncc2Cl)cc1 | 10.4 |
| COc1ccc(N2CCN(S(=O)(=O)c3cc4c5c(c3)C(C)C(=O)N5CCC4)CC2)cc1 (centres unmarked) | -4.27 |
| CC(C)OC(=O)CN1C(=O)C(=O)c2ccccc21 | 3.47 |
| COc1cccc(CC2(CO)CCCN(C(=O)c3cc[n+]([O-])cc3)C2)c1 (centres unmarked) | 6.73 |
| N#Cc1cnn(-c2nc3sc4c(c3c(=O)[nH]2)CCCC4)c1N | 14.6 |
| C[C@@H](CN1C(=O)C(=O)NC[C@@H]1Cc1ccc(O)cc1)NC(=O)Cc1ccccc1 | 10.6 |
| CC(=O)Nc1ccc(S(=O)(=O)NNC(=O)CCc2ccccc2)cc1 | 12.5 |
| CCOC(=O)N1CCN(C(=O)CN(Cc2ccc(Cl)cc2)S(=O)(=O)c2ccc(C)cc2)CC1 | -23.2 |
| CCS(=O)(=O)N1CCC(C(=O)NCc2ccc(OC)cc2)CC1 | 3.22 |
| O=C(c1ccc(O)cc1)c1ccc(O)cc1O | -0.267 |
| Fc1ccc(Nc2ncnc3sc4c(c23)CCC4)cc1F | 1.54 |
| Cc1ccccc1NC(=O)Cn1nnc2sc3c(c2c1=O)CC(C)(C)OC3 | 7.21 |
| CCC(=NC(CC)CO)C1=C(O)CC(C)(C)CC1=O (centres unmarked) | 4.54 |
| Cc1cc(C)cc(OCCCOc2cccc3cccnc23)c1 | 8.05 |
